Measured values reported in article PMC6919601, “Identification of Plasmodium dipeptidyl aminopeptidase allosteric inhibitors by high throughput screening” (PLoS ONE, 2019).
The campaign covered roughly 110,000 compounds. About 230 (0.21%) showed an effect of 50% or more. This is one part of the list.

Molecular target: DPAP1 (Plasmodium falciparum, UniProt Q8IIJ9)
Assay: primary screen, percent inhibition; read by cleavage of a fluorogenic dipeptide substrate; higher = more effect of the substance
Design: species or system P. falciparum D10 trophozoite lysates; single well
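Note: 30 min substrate incubation versus DMSO and 10 µM JCP410 controls.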

DPAP1, sequence (Q8IIJ9 whole entry, looked up): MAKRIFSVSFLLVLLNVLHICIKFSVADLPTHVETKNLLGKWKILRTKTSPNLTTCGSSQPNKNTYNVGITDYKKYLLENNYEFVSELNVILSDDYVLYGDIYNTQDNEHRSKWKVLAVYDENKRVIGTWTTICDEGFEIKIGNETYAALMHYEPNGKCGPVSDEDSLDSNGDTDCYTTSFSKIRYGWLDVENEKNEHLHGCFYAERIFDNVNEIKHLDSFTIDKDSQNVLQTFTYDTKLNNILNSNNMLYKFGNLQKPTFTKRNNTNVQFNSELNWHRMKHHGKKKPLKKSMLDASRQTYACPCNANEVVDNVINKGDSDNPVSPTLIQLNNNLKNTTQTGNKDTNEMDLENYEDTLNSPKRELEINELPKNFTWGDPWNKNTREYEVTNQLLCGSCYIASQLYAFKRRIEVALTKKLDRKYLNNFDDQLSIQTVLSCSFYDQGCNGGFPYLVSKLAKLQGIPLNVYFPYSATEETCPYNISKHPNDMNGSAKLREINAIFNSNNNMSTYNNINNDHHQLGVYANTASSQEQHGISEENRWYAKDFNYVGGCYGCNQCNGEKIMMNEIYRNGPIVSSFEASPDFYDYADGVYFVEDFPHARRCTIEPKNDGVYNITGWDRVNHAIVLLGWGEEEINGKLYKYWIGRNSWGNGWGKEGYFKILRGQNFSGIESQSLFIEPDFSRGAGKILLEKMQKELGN

| Structure (SMILES) | % Inhibition @ 10 uM [%] |
| --- | --- |
| CC(c1ccccc1)n1cncc1C(=O)N1CCCC1=O (stereo not shown) | 4.1 |
| O=C(NC1(C(F)(F)F)NC(=O)N(C2CCCCC2)C1=O)c1ccco1 (stereo not shown) | 0.221 |
| COc1ccc(NC(=O)C2=C(C)Nc3ncnn3C2c2ccc(Cl)cc2Cl)cc1 (stereo not shown) | -1.26 |
| O=c1c(N2CCC(Cc3ccccc3)CC2)csc2ccccc12 | 1.81 |
| COc1ccc(/C=C\c2onc(C)c2S(=O)(=O)N2CCC(C(=O)NCC3CCCO3)CC2)cc1 (stereo not shown) | -6.89 |
| CN(CCc1ccccn1)C1CCc2ccccc2C1 (stereo not shown) | -3.27 |
| NC(=O)c1ccccc1NC(=O)CCC1CCCC1 | -3.18 |
| CCC[C@@H](/C=C/S(=O)(=O)c1ccccc1)NC(=O)[C@H](Cc1c(F)cccc1F)NC(=O)c1ccc(-c2cc(C(=O)OC)ccc2Cl)cc1 | -0.207 |
| CNC(=O)c1ccc2nc(-c3ccc(F)cc3)c(-c3ccc(F)cc3)nc2c1 | 7.61 |
| Cc1cccc(-c2oc(C)c(C)[n+]2[O-])c1 | -4 |
| Cc1ccc(S(=O)(=O)Nc2ccnc(C(=O)NCc3ccc(F)cc3)c2)cc1 | 1.25 |
| O=c1oc2cc3oc4c(c3cc2c2c1CCC2)CCCC4 | 2.54 |
| CN(C)c1ccc(CN2CCN(Cc3ccccc3)CC2)cc1 | -5.41 |
| Cc1cc(C)c(Cc2c(C)nc3c(C(=O)NCc4ccccc4)cnn3c2C)c(C)c1 | -0.406 |
| CCCc1cc(O)n2nc(Cc3ccccc3)c(-c3ccc(Cl)cc3)c2n1 | -5.62 |
| Cc1nc(SCc2ccc(Cl)cc2)nc2ccccc12 | 2.3 |
| COC(=O)NC1C=CS(=O)(=O)C1 (stereo not shown) | -4.51 |
| O=C(O)c1cnc2c(ccc3ccccc32)c1O | 3.76 |
| COC(=O)CSC1=C(C#N)C(c2ccc(Cl)cc2Cl)CC(=O)N1 (stereo not shown) | 1.13 |
| Brc1ccccc1-c1nnc2sc(-c3cnccn3)nn12 | -2.21 |
| CCOC(=O)C1=C(Cn2ccc(C(F)(F)F)n2)NC(=O)NC1c1cc(C)ccc1C (stereo not shown) | -5.4 |
| CNC(=O)N(C)C(=O)NC1CCCCCCCCCCC1 | -4.43 |
| C=CCOc1ccc(/C=c2/sc3nc(=O)c(Cc4ccc(F)cc4)nn3c2=O)cc1OC | -2.29 |
| COc1cc(CNC2CC3CCC2C3)cc(OC)c1 (stereo not shown) | -3.8 |
| COc1ccc(C2Nc3ccccc3N=C3CC(c4cccs4)CC(O)=C32)c(OC)c1OC (stereo not shown) | 0.777 |
| Cc1cc(C)c(S(=O)(=O)NCCc2nc3ccccc3[nH]2)c(C)c1 | 2.99 |

| Structure (SMILES) | % Inhibition @ 10 uM [%] |
| --- | --- |
| CCOC(=O)c1c(CN(CC)CC)n(C)c2cc(Br)c(O)cc12 | -4.61 |
| O=c1c2c3c(sc2nc(SCc2ccccc2)n1-c1ccccc1)CCC3 | -2.2 |
| Cc1ccc(C2=N/C(=C\c3ccc(Br)o3)C(=O)O2)cc1 | -2.27 |
| Cn1cc(C(=O)NCc2ccc(F)cc2)cn1 | -6.42 |
| CCc1ccc(C2=NN(CCC(=O)NCc3ccc(OC)cc3)C(=O)CC2)cc1 | -6.4 |
| OCCNc1nc(O)c2c(ncn2Cc2ccccc2)n1 | -1.74 |
| O=C(Nc1ccccc1)Nc1ccc(F)c(Cl)c1 | -2.18 |
| Cc1ccccc1-c1nc(O)c2c(n1)Oc1ccc(F)cc1C2 | 0.444 |
| COc1ccc(C(CC(=O)NCc2ccccc2OC)N2Cc3ccccc3C2=O)cc1 (stereo not shown) | -8.48 |
| O=S(=O)(c1ccccc1)n1nc(-c2cccnc2)nc1NCc1ccco1 | -6.64 |
| O=S(=O)(Nc1ccc(Cl)cc1Cl)c1cc(Cl)ccc1Cl | 3.85 |
| O=C(O)CCNC(=O)/C(=C/c1ccc2c(c1)OCO2)NC(=O)c1cccc(Br)c1 | 0.851 |
| CCOc1ccc(S(=O)(=O)N2CN3CCN(C3)C2)cc1 | -1.11 |
| O=C(Cn1cnc2c(nnn2-c2ccc(F)cc2)c1=O)N1CCCCCC1 | -2.16 |
| Cc1ccc(CNC(=O)c2cc(C3CC3)[nH]n2)o1 | -4.46 |
| CC1CCC(C(C)C)C(OCC(O)CN2CCN(C)CC2)C1 (stereo not shown) | -6.09 |
| Cc1cccc(-c2nc(C#N)c(N3CCN(c4ccccc4)CC3)o2)c1 | 0.673 |
| Cc1cccc(N2C(=O)C3CCC(C)CC3C2=O)c1 (stereo not shown) | -6.07 |
| COc1ccc(Br)cc1/C=N\n1c(C)nnc1C | -2.13 |
| CCOCCCn1c(=N)c(C(=O)NCc2cccnc2)cc2c(=O)n3cccc(C)c3nc21 | -3.27 |
| O=C1C(Cl)=C(N2CCCCC2)C(=O)c2ccccc21 | 5.98 |
| O=C(NCCc1ccccc1)C1CCCN(S(=O)(=O)c2cccc3cccnc23)C1 (stereo not shown) | -4.69 |
| CCCn1cc(CC(C(=O)O)C(=O)O)c2ccccc21 | 2.62 |
| Cc1c(C(=O)NCc2ccc3c(c2)OCO3)cnn1C | -4.39 |
| COc1ccc(N2C(=O)c3ccccc3NC2c2ccc(O)c(OC)c2)cc1 (stereo not shown) | 0.931 |
| COc1ccc2cc(C(C)c3nc4ccccc4[nH]3)ccc2c1 (stereo not shown) | -0.551 |

| Structure (SMILES) | % Inhibition @ 10 uM [%] |
| --- | --- |
| CNC(=O)/C(=C\c1ccc(OC)cc1)NC(=O)c1cccc(Br)c1 | 2.38 |
| Cc1ccc(-c2coc3cc4oc(=O)c(CCC(=O)O)c(C)c4cc23)cc1 | 0.558 |
| Cc1cc(C)cc(NS(=O)(=O)c2ccc(F)cc2)c1 | -3.67 |
| O=C(COc1ccccc1)Nc1ccc(CN2CCOCC2)cc1 | -4.97 |
| c1cc(-c2nc3ccncc3[nH]2)ccn1 | -2.63 |
| Nc1nc(-c2cccnc2)nn1C(=O)c1ccccc1Cl | 2.31 |
| O=C(/C=C/c1ccco1)NCc1ccccc1C(F)(F)F | -5.03 |
| CCOC(=O)c1cc2c(=O)n3ccccc3nc2n(C2CCCCC2)/c1=N\C(=O)c1ccccc1F | -3.78 |
| COC(=O)/C(C#N)=C/c1c(Oc2ccccc2)nc2c(C)cccn2c1=O | 0.315 |
| O=C(NCc1cccnc1)c1ccc(COc2ccc3c(c2)CCC3)o1 | -1.33 |
| COc1ccc(C(=O)N2CCN(c3ccccc3F)CC2)cc1 | -4.35 |
| CCc1ccc(/C=C2\Cc3ccccc3C2=O)cc1 | -1.31 |
| O=C(CN(C1CCCCC1)S(=O)(=O)c1ccc(Br)cc1)NCc1ccccn1 | 3.72 |
| COc1cccc(CN2CCC(Cc3ccccc3)CC2)c1OC | 2.47 |
| CCN(CC)C(=O)CN(C)S(=O)(=O)c1cccc2nsnc12 | -3.23 |
| Cc1noc(/C=C/c2ccccc2F)c1S(=O)(=O)N1CCC(C(=O)N2CCCC2)CC1 | 4.88 |
| COc1ccccc1-c1cc(-c2ccc(Br)cc2)nc(O)n1 | -1.5 |
| CCOC(=O)c1c(OCC)[nH]c2c1cc(O)c1ccccc12 | 1.12 |
| NC(=O)C1CCN(C(=O)CN(CC(=O)N2CCC(C(N)=O)CC2)Cc2ccco2)CC1 | 0.628 |
| COCc1nn2cc(-c3ccccc3)nc2s1 | -4.54 |
| O=C(NCc1cccc(Cl)c1)C1CCCN(S(=O)(=O)N2CCOCC2)C1 (stereo not shown) | 1.17 |
| CCc1ccc(OCc2nnnn2-c2ccccc2)cc1 | 0.569 |
| COC(=O)c1cc(-c2ccc(C)cc2)nc2ccc(Cl)cc12 | 3.66 |
| COc1cc(/C=C2/SC(=O)N(CC(=O)N3CCN(c4ccccc4)CC3)C2=O)ccc1O | 2.76 |
| CCCCCCNC(=O)C1CCCCC1C(=O)O (stereo not shown) | 2.01 |
| N#CC1=C(N)OC2=C(C(=O)CCC2)C1c1ccc(N2CCCC2)cc1 (stereo not shown) | -2.87 |

| Structure (SMILES) | % Inhibition @ 10 uM [%] |
| --- | --- |
| CC(C)(C)NC1=N/C(=C\c2ccccc2)C(=O)N1c1ccc(Cl)cc1 | -1.07 |
| CCc1ccc2nc(NC3=NCN(Cc4ccc(OC)cc4)CN3)nc(C)c2c1 | 2.1 |
| Cc1ccccc1NC(=O)CN1C(=O)N/C(=C\c2ccc(N3CCOCC3)c(F)c2)C1=O | -0.473 |
| c1ccc(-n2ncc3c(NC4CCCCC4)ncnc32)cc1 | 8.97 |
| Cc1cc2c(c(SCC(=O)NCCc3ccccc3)n1)C(=O)OC2 | 2.57 |
| COc1cc(/C=C/C(=O)N2CCC(C)CC2)ccc1OCc1ccccc1 | 5.12 |
| Cc1c(C(=O)c2ccccc2)c2cc(O)ccc2n1-c1ccc(Br)cc1 | 6.66 |
| CCOC(=O)C1CCCN(CC2CC3C=CC2C3)C1 (stereo not shown) | -0.603 |
| CCN1CCCC1CNC(=O)C1CCN(c2nc3c(C)cc(C)cc3s2)CC1 (stereo not shown) | 0.137 |
| Cc1ccnc(Nc2nc3ccc(C)cc3n3cnnc23)c1 | -6.07 |
| O=C1c2ccc3c4c(ccc(c24)C(=O)N1CCOCc1ccccc1)CC3 | -4.82 |
| CCOC(=O)c1cnc(SCc2cccc(C)c2)nc1N | 4.99 |
| COc1cc2c(cc1OC)-c1c(OC)c(OC)cc3c1C(C2)N(C)CC3 (stereo not shown) | 3.34 |
| COCCn1c(CN(C)Cc2ccccc2)nc2c1c(=O)n(C)c(=O)n2C | -5.1 |
| CNC(=O)c1c(NC(=O)c2ccccc2C)sc2c1CCCCC2 | -2.13 |
| Cc1ccccc1/C=C1\N=C(c2ccco2)OC1=O | 6.11 |
| NS(=O)(=O)c1ccc(NC(=O)c2ccccc2)cc1 | 1.24 |
| O=C(Nc1nc(-c2ccccc2)cs1)c1ccco1 | -8.3 |
| CC1=C(C(=O)N2CCCCC2C)C2(CCCCCC2)OC1=O (stereo not shown) | 2.01 |
| N#CCc1ccc(NC(=O)COc2cccc(Cl)c2Cl)cc1 | -2.67 |
| COc1ccc(-c2noc(CC3CCCCC3)n2)cc1OC | -6.4 |
| CC1CCCCN1S(=O)(=O)c1csc(C(N)=O)c1 (stereo not shown) | -0.822 |
| Cc1ccccc1/C=C1\CN(C)C/C(=C\c2ccccc2C)C1=O | 8.24 |
| O=C(NC12CC3CC(CC(C3)C1)C2)c1ccccc1O | 6.68 |
| O=C(CN1CCOCC1)N1c2ccccc2CCc2ccccc21 | -3.92 |
